According to US20220348632A1 (Novartis, published 2022):
“And” between values parts separate entries of the source, which are not always exact repeats. Identical values can stand only once.

What was measured:
[1] = biological target: T1, recombinant human MICA*001 ligand (human, UniProt Q29983 24-307, Biotinylated for capture on the SA chip in the bivalent setup, according to our card. The site is not given.); assay: SPR (Biacore T200), monovalent setup: NKG2D-Fc captured on Protein A chip, ligand as analyte
T1 construct: also called hMICA*001
T1 sequence: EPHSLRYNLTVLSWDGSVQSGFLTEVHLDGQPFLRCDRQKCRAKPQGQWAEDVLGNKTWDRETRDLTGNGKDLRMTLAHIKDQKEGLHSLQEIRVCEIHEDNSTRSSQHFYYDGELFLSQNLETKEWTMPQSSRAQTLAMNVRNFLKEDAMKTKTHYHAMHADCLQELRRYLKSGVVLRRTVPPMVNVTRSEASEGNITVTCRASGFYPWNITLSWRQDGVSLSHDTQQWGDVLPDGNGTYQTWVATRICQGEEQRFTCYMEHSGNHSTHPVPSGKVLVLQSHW
Protocol: (§1) A direct binding assay was performed to characterize the binding of the ADCC enhanced and wild-type NKG2D-Fc variants against recombinant human MICA*001 and MICB*001 ligands. The NKG2D-Fc variants were first used as ligand to characterize the binding of each NKG2D dimer to MICA and MICB (monovalent binding setup) and secondly as analyte in order to determine the effect on the binding when having two homodimers (bivalent binding setup).
(§2) For the monovalent binding setup, kinetic binding affinity constants (KD) were measured on protein-A captured NKG2D-Fc variants using recombinant human NKG2D ligands as analyte. Measurements were conducted on a BIAcore® T200 (GE Healthcare, Glattbrugg, Switzerland) at room temperature. The NKG2D-Fc variants were captured on the flow cell of a Protein A research grade sensor chip (GE Healthcare, ref 29127555). All proteins were diluted in 0.01 M HEPES pH 7.4, 0.15 M NaCl, 3 mM EDTA, 0.005% v/v Surfactant P20. To serve as reference, one flow cell was left blank without any captured protein. Binding data were acquired by subsequent injection of analyte dilutions series on the reference and measuring flow cell. Zero concentration samples (running buffer only) were included to allow double referencing during data evaluation. For data evaluation, doubled referenced sensograms were used and dissociation constants (KD) analyzed.

[2] = biological target: T2, recombinant human MICB*001 ligand (human, UniProt Q29980 23-309, Biotinylated for capture on the SA chip in the bivalent setup, according to our card. The site is not given.); assay: as above
T2 construct: also called hMICB*001
T2 sequence: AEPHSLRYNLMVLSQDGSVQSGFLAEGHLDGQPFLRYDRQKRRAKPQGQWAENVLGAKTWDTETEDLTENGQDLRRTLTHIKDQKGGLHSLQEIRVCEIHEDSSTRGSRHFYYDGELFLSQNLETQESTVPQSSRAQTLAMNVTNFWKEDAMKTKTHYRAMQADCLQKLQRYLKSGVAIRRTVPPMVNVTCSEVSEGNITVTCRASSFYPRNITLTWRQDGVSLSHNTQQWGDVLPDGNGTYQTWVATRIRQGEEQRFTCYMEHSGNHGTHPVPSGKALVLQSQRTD
Protocol: as §1, §2

[3] = biological target: T3, cynomolgus MICA*08 over-expressed on CT26.WT cells (cynomolgus); assay: flow cytometry titration of HH8 on 293FT cells over-expressing cyMICA*08; fluorescent secondary antibody, fluorescence intensity
T3 construct: whole, on cells; also called cyMICA*08; cyMICA08
Protocol: (§3) 6e6 293FT cells (Invitrogen) were plated into a 10 cm dish with 10 mL cD10, then 3 hours later media was changed to 5 mL pre-warmed Opti-MEM1. Cells were transfected 4 hours after OptiMem-1 addition using lipofectamine-2000 according to manufacturers instructions with DNA plasmids encoding for the indicated ligands. After overnight incubation, the cells were harvested with two sequential washes of 5 mL PBS+2 mM EDTA. Cells were counted on a Nexcelom Cell Counter, and 100e3 cells were resuspended in PBS+2 mM EDTA+2% Fetal Bovine Serum (FACS Buffer) with 10 ug/mL HH8 or 10 ug/mL Human IgG1 Isotype. Cells were stained for 15 minutes at 4 degrees, then washed once in 200 uL FACS Buffer, and stained with a secondary antibody, Alexa488-labeled goat anti-huIgG (A11013, Thermo Fisher) for 15 minutes at 4 degrees. Cells were then washed once in 200 uL FACS Buffer, resuspended in 100 uL FACS Buffer and fixed with an additional 100 uL of IC Fixation Buffer (eBioscience) before running on a BD Fortessa and analyzing in Flowjo (see, e.g., FIGS. 12A-12B).

[4] = biological target: T4, cynomolgus MICB*05 over-expressed on CT26.WT cells (cynomolgus); assay: flow cytometry titration of HH8 on 293FT cells over-expressing cyMICB*05; fluorescent secondary antibody, fluorescence intensity
T4 construct: whole, on cells; also called cyMICB*05; cyMICB05
Protocol: as §3

- Kd [1]: 60 nM
- Kd [2]: 114 nM
- EC50 [3]: 0.298 µg/mL and 2.57 nM
- EC50 [4]: 3.05 µg/mL and 26.3 nM
B1: HH8, hNKG2D(aa84-216)-RS(G3S)2-hNKG2D(aa84-216)-hFc1 (Fc fusion)
chain: NQEVQIPLTESYCGPCPKNWICYKNNCYQFFDESKNWYESQASCMSQNASLLKVYSKEDQDLLKLVKSYHWMGLVHIPTNGSWQWEDGSILSPNLLTIIEMQKGDCALYASSFKGYIENCSTPNTYICMQRTVRSGGGSGGGSNQEVQIPLTESYCGPCPKNWICYKNNCYQFFDESKNWYESQASCMSQNASLLKVYSKEDQDLLKLVKSYHWMGLVHIPTNGSWQWEDGSILSPNLLTIIEMQKGDCALYASSFKGYIENCSTPNTYICMQRTV[human IgG1 Fc left out here]
notes: Homodimer of two monomers joined through the Fc; also called NKG2D-Fc; HH8 with IgG1-Fc wt
